Consider ten variants from the supplement of paper PMC12217912.

Sequences and labels used below:
B1: TEV protease; numbered along this chain (parent)
chain: MGESLFKGPRDYNPISSSICHLTNESDGHTTSLYGIGFGPFIITNKHLFRRNNGTLVVQSLHGVFKVKDTTTLQQHLVDGRDMIIIRMPKDFPPFPQKLKFREPQREERICLVTTNFQTKSMSSMVSDTSCTFPSGDGIFWKHWIQTKDGQCGSPLVSTRDGFIVGIHSASNFTNTNNYFTSVPKNFMELLTNQEAQQWVSGWRLNADSVLWGGHKVFMVKPEEPFQPVKEATQL

The other results are listed elsewhere or left out. Sequences were assembled here from the parent chain. Inactive controls read about 0.05.
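Further: Bxb1 expression induced with 0.2% (w/v) L-rhamnose at OD600 near 0.5, cultures sampled hourly, flipped fraction per protease–substrate barcode pair counted by paired-end Illumina sequencing.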

This assay covers variants of B1. Put plainly: raw area under fraction-flipped curve 0-4 h after induction (AUC4h, not background-subtracted), DNA-recorder readout of cleavage of the substrate (dimensionless); higher = more cleavage of the substrate by the protease variant. The following applies: temperature: 34 °C; time window: 0-4 h after rhamnose induction.
MGESLFKGPRDYNPISSSICHLTNESDGHTTSLYGIGFGPFIITNKHLFRRNNGTLVVQSLHGVFKVKDTTTLQQHLVDGRDMIIIRMPKDFPFFPQKLKFREPQREERICLVTTNFQTKSMSSMVSDTSCTFPSGDGIFWKHWIQTKDGQCGSPLVSTRDGFIVGIHSASNFTNTNNYFTSVPKNFMELLTNQEAQQWVSGWRLNADSVLWGGHKVFMVKPEEPFQPVKEATQL [P94F]: the “area with substrate ENLYFQC” value was 0.112, the “area with substrate ENLYFQK” value stood at 0.0727, the “area with substrate ENLYFQQ” value was found to be 0.0538 and the “area with substrate ENLYFQS” value was determined as 0.0969. Moreover, the “area with substrate ENLYFQT” value stood at 0 and the “area with substrate ENLYFQW” value was 0.0782.

In the case of MGESLFKGPRDYNPISSSICHLTNESDGHTTSLYGIGFGPFIITNKHLFRRNNGTLVVQSLHGVFKVKDTTTLQQHLVDGRDMIIISMPKDFPPFPQKLKFREPQREERICLVTTNFQTKSMSSMVSDTSCTFPSGDGIFWKHWIQTKDGQCGSPLVSTRDGFIVGIHSASNFTNTNNYFTSVPKNFMELLTNQEAQQWVSGWRLNADSVLWGGHKVFMVKPEEPFQPVKEATQL [R87S], the “area with substrate ENLYFQC” value turned out to be 0.122, the “area with substrate ENLYFQD” value came out at 0.0675, the “area with substrate ENLYFQF” value is 0.0683 and the “area with substrate ENLYFQG” value turned out to be 0.068. The “area with substrate ENLYFQI” value was 0.0435, the “area with substrate ENLYFQK” value was determined as 0.0581, the “area with substrate ENLYFQL” value was 0.0635 and the “area with substrate ENLYFQM” value worked out at 0.0716. The “area with substrate ENLYFQN” value was 0.0679, the “area with substrate ENLYFQS” value was 0.0798, the “area with substrate ENLYFQT” value stood at 0.0618 and the “area with substrate ENLYFQW” value was 0.0585. The “area with substrate ENLYFQY” value was found to be 0.0705.

In the case of MGESLFKGPRDYNPISSSICHLTNESDGHTTSLYGIGFGPFIITNKHLFRRNNGTLVVQSLHGVFKVKDTTTLQQHLVDGRDMIIIRMPKDFPPFPQKLKFREPQREERICLVTTNFKTKSMSSMVSDTSCTFPSGDGIFWKHWIQTKDGQCGSPLVSTRDGFIVGIHSASNFTNTNNYFTSVPKNFMELLTNQEAQQWVSGWRLNADSVLWGGHKVFMVKPEEPFQPVKEATQL [Q118K], the “area with substrate ENLYFQC” value worked out at 0.14, the “area with substrate ENLYFQE” value stood at 0.0576, the “area with substrate ENLYFQL” value is 0.059 and the “area with substrate ENLYFQQ” value turned out to be 0.0676. For the same variant, the “area with substrate ENLYFQR” value is 0.0545, the “area with substrate ENLYFQS” value came to 0.0772, the “area with substrate ENLYFQT” value worked out at 0.0591 and the “area with substrate ENLYFQV” value was 0.0575. The “area with substrate ENLYFQW” value was 0.065.

Regarding MGESLFKGPRDYNPISSSICHLTNESDGHTTSLYGIGFGPFIITNKHLFRRNNGTLVVQSLHGVFKVKDTTTLQQHLVDGRDMIIIRMPKDFPPFPQKLKFREPQREERICLVTTNFQTKSMSSMVSDGSCTFPSGDGIFWKHWIQTKDGQCGSPLVSTRDGFIVGIHSASNFTNTNNYFTSVPKNFMELLTNQEAQQWVSGWRLNADSVLWGGHKVFMVKPEEPFQPVKEATQL [T129G], the “area with substrate ENLYFQC” value came out at 0.118, the “area with substrate ENLYFQH” value is 0.0584, the “area with substrate ENLYFQI” value came out at 0.0531 and the “area with substrate ENLYFQL” value was found to be 0.0648. Moreover, the “area with substrate ENLYFQM” value amounted to 0.0794, the “area with substrate ENLYFQP” value worked out at 0.0793, the “area with substrate ENLYFQR” value is 0.0689 and the “area with substrate ENLYFQS” value stood at 0.106. In addition, the “area with substrate ENLYFQW” value came to 0.0739.

MGESLFKGPRDYNPISSSICHLTNESDGHTTSLYGIGFGPFIITNKHLFRRNNGTLVVQSLHGVFKVKDTTTLQQHLVDGRDMIIIRMPKDFPPFPQKLKFREPQREERICLVTTNFQTKSMSSMVSDTSCTFPSGDGIFWKHWIQTKDGQCGSPLVSTRDGFIVGIHSASNFTNTNNYFTSVPKNFMELLTNQEAQQWVSGWRLNADSVLWGGHKVFMVKPEEHFQPVKEATQL [P225H]: the “area with substrate ENLYFQD” value was 0.0653, the “area with substrate ENLYFQG” value was found to be 0.0958, the “area with substrate ENLYFQH” value amounted to 0.0561 and the “area with substrate ENLYFQK” value worked out at 0.0482. The “area with substrate ENLYFQM” value turned out to be 0.0781, the “area with substrate ENLYFQP” value turned out to be 0.0556, the “area with substrate ENLYFQS” value was 0.0947 and the “area with substrate ENLYFQT” value was determined as 0.0759. Further, the “area with substrate ENLYFQW” value was found to be 0.0586.

For MGESLFKGPRDYNPISSSICHLTNESDGHTTSLYGIGFGPFIITNKHLFRRNNGTLVVQSLHGVFKVKDKTTLQQHLVDGRDMIIIRMPKDFPPFPQKLKFREPQREERICLVTTNFQTKSMSSMVSDTSCTFPSGDGIFWKHWIQTKDGQCGSPLVSTRDGFIVGIHSASNFTNTNNYFTSVPKNFMELLTNQEAQQWVSGWRLNADSVLWGGHKVFMVKPEEPFQPVKEATQL [T70K], the “area with substrate ENLYFQC” value was determined as 0.0585, the “area with substrate ENLYFQM” value came out at 0.0385, the “area with substrate ENLYFQN” value came out at 0.0677 and the “area with substrate ENLYFQQ” value came out at 0.0283. Besides, the “area with substrate ENLYFQS” value came to 0.0672, the “area with substrate ENLYFQT” value is 0.0615, the “area with substrate ENLYFQV” value was found to be 0.0413 and the “area with substrate ENLYFQW” value was found to be 0.0589.

Consider MGESLFKGPRDYNPISSSICHLTNFSDGHTTSLYGIGFGPFIITNKHLFRRNNGTLVVQSLHGVFKVKDTTTLQQHLVDGRDMIIIRMPKDFPPFPQKLKFREPQREERICLVTTNFQTKSMSSMVSDTSCTFPSGDGIFWKHWIQTKDGQCGSPLVSTRDGFIVGIHSASNFTNTNNYFTSVPKNFMELLTNQEAQQWVSGWRLNADSVLWGGHKVFMVKPEEPFQPVKEATQL [E25F], for which the “area with substrate ENLYFQC” value came to 0.117, the “area with substrate ENLYFQG” value was 0.095, the “area with substrate ENLYFQH” value is 0.0675 and the “area with substrate ENLYFQI” value amounted to 0.0512. The “area with substrate ENLYFQK” value came out at 0.064, the “area with substrate ENLYFQM” value is 0.0904, the “area with substrate ENLYFQN” value was found to be 0.0755 and the “area with substrate ENLYFQP” value was found to be 0.0653. The “area with substrate ENLYFQQ” value is 0.0924, the “area with substrate ENLYFQR” value was determined as 0.0616, the “area with substrate ENLYFQS” value was determined as 0.0972 and the “area with substrate ENLYFQT” value came to 0.0889. Also, the “area with substrate ENLYFQW” value turned out to be 0.0649 and the “area with substrate ENLYFQY” value was found to be 0.083.

For the variant MGESLFKGPRDYNPISSSICHLTNESDGHTTSLYGIGFGPFIITNKHLFRRNNGTLVVQSLHGVFKVKDTTTLQQHLVDGRDMIIIRMPKDDPPFPQKLKFREPQREERICLVTTNFQTKSMSSMVSDTSCTFPSGDGIFWKHWIQTKDGQCGSPLVSTRDGFIVGIHSASNFTNTNNYFTSVPKNFMELLTNQEAQQWVSGWRLNADSVLWGGHKVFMVKPEEPFQPVKEATQL [F92D], the “area with substrate ENLYFQC” value worked out at 0.0619, the “area with substrate ENLYFQD” value amounted to 0.053, the “area with substrate ENLYFQF” value was 0.0433 and the “area with substrate ENLYFQG” value stood at 0.0633. Also, the “area with substrate ENLYFQH” value was found to be 0.0655, the “area with substrate ENLYFQI” value turned out to be 0.0568, the “area with substrate ENLYFQM” value came out at 0.052 and the “area with substrate ENLYFQP” value turned out to be 0.0549. The “area with substrate ENLYFQR” value was 0.0562, the “area with substrate ENLYFQS” value stood at 0.0665, the “area with substrate ENLYFQT” value was found to be 0.053 and the “area with substrate ENLYFQW” value was determined as 0.057.

On to MGESLFKGPRDYNPISSSICHLTNESDGHTTSLYGIGFGPFIITNKHLFRRNNGTLVVQSLHGVFKVKDTTTLQQHLVDGRDMIIIRMPKDFPPFPQKLKFREPQREERICLVTTNFQTKSMSSMVSDTSCTFPSGDGIFWKHWLQTKDGQCGSPLVSTRDGFIVGIHSASNFTNTNNYFTSVPKNFMELLTNQEAQQWVSGWRLNADSVLWGGHKVFMVKPEEPFQPVKEATQL [I145L], for which the “area with substrate ENLYFQD” value amounted to 0.0664, the “area with substrate ENLYFQF” value came out at 0.0779, the “area with substrate ENLYFQG” value worked out at 0.0858 and the “area with substrate ENLYFQH” value was 0.0557. In addition, the “area with substrate ENLYFQN” value turned out to be 0.0745, the “area with substrate ENLYFQS” value was 0.097, the “area with substrate ENLYFQT” value came to 0.0815 and the “area with substrate ENLYFQV” value was 0.0629.

For the variant MGESLFKGPRDYNPISSSICHLTNESDGHTTSLYGIGFGPFIITNKHLFRRNNGTLVVQSLHGVFKVKDTTTLQQHLVDGRDMIIIRMPKDFPPFPQKLKFREPQREERICLVTTNFQTKSMSSMVSDTSCTFPSGDGIFWKHWIQTKDGQCGSPLVSTRDGFIVGIHSASNFTNTNNYMTSVPKNFMELLTNQEAQQWVSGWRLNADSVLWGGHKVFMVKPEEPFQPVKEATQL [F180M], the “area with substrate ENLYFQC” value is 0.112, the “area with substrate ENLYFQG” value amounted to 0.118, the “area with substrate ENLYFQH” value stood at 0.0809 and the “area with substrate ENLYFQM” value was found to be 0.0712. Besides, the “area with substrate ENLYFQN” value is 0.0502, the “area with substrate ENLYFQQ” value was determined as 0.0264, the “area with substrate ENLYFQS” value came to 0.0995 and the “area with substrate ENLYFQY” value stood at 0.0043.
